Measurements from patent publication CN110950967A (SHANDONG MINKANG BIOLOGICAL TECH CO LTD; HANGZHOU ZHONGLIAN …, dated 2020).

Target: T1, 人血清白蛋白 (human, UniProt P02768)
T1 construct: Injected as analyte over the immobilised fusion protein; also called human serum albumin; HSA
Test: SPR, GE Biacore X100, fusion protein amine-coupled to a CM-5 chip, human serum albumin injected at at least three concentrations

T1 sequence (P02768 25-609 limits assumed): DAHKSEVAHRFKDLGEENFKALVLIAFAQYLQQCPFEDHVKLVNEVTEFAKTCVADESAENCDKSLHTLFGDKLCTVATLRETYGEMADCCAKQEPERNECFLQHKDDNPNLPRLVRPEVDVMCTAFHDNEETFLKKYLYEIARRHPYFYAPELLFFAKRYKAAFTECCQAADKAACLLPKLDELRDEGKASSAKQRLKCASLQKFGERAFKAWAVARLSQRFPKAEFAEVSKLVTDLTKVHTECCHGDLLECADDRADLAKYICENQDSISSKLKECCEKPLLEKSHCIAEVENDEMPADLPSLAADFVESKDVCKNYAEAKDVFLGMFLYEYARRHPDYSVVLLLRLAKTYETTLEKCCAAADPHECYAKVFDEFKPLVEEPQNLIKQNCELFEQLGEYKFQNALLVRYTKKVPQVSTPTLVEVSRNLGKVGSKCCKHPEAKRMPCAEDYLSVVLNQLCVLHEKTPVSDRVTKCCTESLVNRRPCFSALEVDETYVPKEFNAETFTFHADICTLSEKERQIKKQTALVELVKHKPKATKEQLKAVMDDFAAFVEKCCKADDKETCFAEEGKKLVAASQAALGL

B1: 抗人血清白蛋白纳米抗体与IL-2融合蛋白 (other)
chain: MADVQLVESGGGLVQPGQSLRLSCAATGRSFTTNAMAWFRQFPGKEREFVAAISWGGLGYVADSMRGRFTISRDTKDTMILRLSSLKREDTAIYYCAARKTSTTATEATMYAYWGHGTQVTVSEPKTPKEFGGGGSGGGGS[about 150 residues left out]
notes: Expressed from pMAL-c5x in E. coli BL21(DE3) and purified on Ni-NTA; TEV cleavage is described only for a 10 ug sample run on a gel; also called 抗人血清白蛋白纳米抗体与人IL-2融合蛋白; 重组融合蛋白
- Kd: 0.162 nM
